The IC50 is the concentration at which inhibition is half-maximal.

Compound in this test: C=CC(=O)Nc1cccc(Nc2nc(NC3CCC(N(C)C)CC3)nc3c2ncn3C(C)C)c1 [WZ3105]
Kind of test: Viability of human cancer cell lines after 72 h of drug (GDSC screen). The note with it: top dose inferred. On the procedure: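 Human cancer cell lines in 384-well plates, medium with 10% serum, drug for 72 h over a 256-fold dose range (nine 2-fold or five 4-fold steps up to the top dose). Adherent lines were fixed and stained with the nucleic acid dye Syto60, suspension lines read with resazurin; signal relative to control wells, capped at 0 and 100%. One two-parameter sigmoid per drug and line, fitted in a mixed model over all curves with the slope shared within a line.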

By IC50 is meant the dose at which the fit gives 50% viability; a fit beyond the top or the lowest dose is shown as a bound at that dose. AUC is the area under the same curve over the 256-fold range up to the top dose, as a fraction; the more sensitive the line, the further below 1. Where the top dose is marked as inferred, it was derived from the fitted curves, not read from the paper.

For “BCPAP (thyroid, adherent, top dose 1.28 µM)”, the AUC is 0.703 and the IC50 is 279 nM.

Turning to “BE2-M17 (neuroblastoma, adherent, top dose 1.28 µM)”, the AUC came out at 0.928 and the 50% inhibitory concentration (IC50) is above 1280 nM.

As to “BE-13 (lymphoblastic leukaemia, suspension, top dose 1.28 µM)”, the AUC worked out at 0.549 and the IC50 was 108 nM.

As for “BEN (non-small cell lung carcinoma, adherent, top dose 1.28 µM)”, the AUC turned out to be 0.927 and the IC50 is above 1280 nM.

“BFTC-905 (bladder, adherent, top dose 1.28 µM)”: the AUC worked out at 0.783 and the IC50 came to 460 nM.

On to “BFTC-909 (kidney, adherent, top dose 1.28 µM)”, for which the AUC amounted to 0.981 and the IC50 is above 1280 nM.

“BHT-101 (thyroid, adherent, top dose 1.28 µM)”: the AUC came to 0.981 and the concentration for half-maximal inhibition (IC50) was above 1280 nM.

Regarding “BHY (head and neck, adherent, top dose 1.28 µM)”, the AUC was 0.894 and the IC50 is above 1280 nM.

As for “BICR10 (head and neck, adherent, top dose 1.28 µM)”, the AUC came out at 0.984 and the IC50 is above 1280 nM.

Regarding “BICR22 (head and neck, adherent, top dose 1.28 µM)”, the AUC turned out to be 0.882 and the IC50 was above 1280 nM.

With “BICR31 (head and neck, adherent, top dose 1.28 µM)”, the AUC was 0.876 and the IC50 was above 1280 nM.

Regarding “BICR78 (head and neck, adherent, top dose 1.28 µM)”, the AUC was 0.922 and the IC50 was above 1280 nM.

As to “BL-41 (Burkitt lymphoma, suspension, top dose 1.28 µM)”, the AUC came to 0.497 and the IC50 turned out to be 78.7 nM.

In the case of “BPH-1 (prostate, adherent, top dose 1.28 µM)”, the AUC came out at 0.542 and the IC50 was 105 nM.

On to “BT-20 (breast, adherent, top dose 1.28 µM)”, for which the AUC was 0.868 and the IC50 is above 1280 nM.

In the case of “BT-474 (breast, adherent, top dose 1.28 µM)”, the AUC turned out to be 0.742 and the IC50 came to 433 nM.

On to “BT-483 (breast, adherent, top dose 10.24 µM)”, for which the AUC is 0.666 and the IC50 is 2820 nM.

Consider “BV-173 (chronic myeloid leukaemia, suspension, top dose 1.28 µM)”, for which the AUC was determined as 0.575 and the IC50 amounted to 125 nM.

Take “Becker (glioma, adherent, top dose 1.28 µM)”: the AUC was 0.887 and the IC50 is above 1280 nM.

As to “BxPC-3 (pancreas, adherent, top dose 1.28 µM)”, the AUC was determined as 0.735 and the IC50 was determined as 412 nM.

As to “C2BBe1 (large intestine, adherent, top dose 1.28 µM)”, the AUC was determined as 0.891 and the IC50 was above 1280 nM.

C3A (liver, adherent, top dose 1.28 µM): the AUC was 0.988 and the IC50 is above 1280 nM.

Regarding “C32 (melanoma, adherent, top dose 1.28 µM)”, the AUC is 0.764 and the IC50 was found to be 495 nM.

Regarding “C-4-I (cervix, adherent, top dose 1.28 µM)”, the AUC came out at 0.917 and the IC50 is above 1280 nM.

As for “C-33-A (cervix, adherent, top dose 1.28 µM)”, the AUC was 0.876 and the IC50 was above 1280 nM.

On to “CA46 (Burkitt lymphoma, suspension, top dose 1.28 µM)”, for which the AUC is 0.568 and the IC50 is 125 nM.

As for “CADO-ES1 (Ewing sarcoma, suspension, top dose 1.28 µM)”, the AUC is 0.954 and the IC50 was above 1280 nM.

For “CAKI-1 (kidney, adherent, top dose 1.28 µM)”, the AUC came to 0.97 and the IC50 is above 1280 nM.

For “CAL-12T (non-small cell lung carcinoma, adherent, top dose 1.28 µM)”, the AUC was found to be 0.805 and the half-inhibitory concentration (IC50) worked out at 737 nM.

For “CAL-27 (head and neck, adherent, top dose 1.28 µM)”, the AUC stood at 0.782 and the IC50 worked out at 545 nM.

As for “CAL-29 (bladder, adherent, top dose 1.28 µM)”, the AUC was 0.886 and the IC50 was above 1280 nM.

For “CAL-33 (head and neck, adherent, top dose 1.28 µM)”, the AUC was determined as 0.857 and the IC50 amounted to 1040 nM.

Turning to “CAL-39 (cervix, adherent, top dose 1.28 µM)”, the AUC turned out to be 0.933 and the IC50 was above 1280 nM.

On to “CAL-51 (breast, adherent, top dose 1.28 µM)”, for which the AUC was found to be 0.975 and the IC50 was above 1280 nM.

As to “CAL-54 (kidney, adherent, top dose 1.28 µM)”, the AUC was found to be 0.94 and the IC50 was above 1280 nM.

For “CAL-62 (thyroid, adherent, top dose 1.28 µM)”, the AUC was 0.943 and the IC50 is above 1280 nM.

On to “CAL-72 (osteosarcoma, adherent, top dose 1.28 µM)”, for which the AUC stood at 0.984 and the half-maximal inhibitory concentration (IC50) was above 1280 nM.

On to “CAL-78 (chondrosarcoma, adherent, top dose 1.28 µM)”, for which the AUC amounted to 0.947 and the IC50 was above 1280 nM.

“CAL-85-1 (breast, adherent, top dose 1.28 µM)”: the AUC is 0.706 and the IC50 came to 364 nM.

For the cell line “CAL-120 (breast, adherent, top dose 1.28 µM)”, the AUC was determined as 0.842 and the IC50 is above 1280 nM.

On to “CAL-148 (breast, suspension, top dose 1.28 µM)”, for which the AUC was 0.79 and the IC50 turned out to be 521 nM.

On to “CAMA-1 (breast, adherent, top dose 1.28 µM)”, for which the AUC turned out to be 0.778 and the IC50 turned out to be 658 nM.

For “CAPAN-1 (pancreas, adherent, top dose 1.28 µM)”, the AUC amounted to 0.742 and the IC50 was 433 nM.

Take “CAS-1 (glioma, adherent, top dose 1.28 µM)”: the AUC turned out to be 0.798 and the IC50 was determined as 886 nM.

Turning to “CCF-STTG1 (glioma, adherent, top dose 1.28 µM)”, the AUC turned out to be 0.83 and the IC50 turned out to be 809 nM.

Take “CCK-81 (large intestine, adherent, top dose 10.24 µM)”: the AUC was 0.886 and the IC50 was 10100 nM.

Regarding “CCRF-CEM (lymphoblastic leukaemia, suspension, top dose 1.28 µM)”, the AUC was 0.537 and the IC50 was determined as 99.3 nM.

For the cell line “CESS (acute myeloid leukaemia, suspension, top dose 1.28 µM)”, the AUC is 0.683 and the IC50 is 239 nM.

As to “CFPAC-1 (pancreas, adherent, top dose 1.28 µM)”, the AUC was determined as 0.895 and the IC50 is above 1280 nM.

For “CGTH-W-1 (thyroid, adherent, top dose 1.28 µM)”, the AUC was 0.871 and the IC50 stood at 1190 nM.

As to “CHL-1 (melanoma, adherent, top dose 1.28 µM)”, the AUC amounted to 0.872 and the IC50 turned out to be 1100 nM.

Take “CHP-126 (neuroblastoma, suspension, top dose 1.28 µM)”: the AUC is 0.902 and the IC50 is above 1280 nM.

As to “CHP-134 (neuroblastoma, suspension, top dose 1.28 µM)”, the AUC is 0.832 and the IC50 stood at 1150 nM.

As for “CHP-212 (neuroblastoma, adherent, top dose 1.28 µM)”, the AUC amounted to 0.988 and the IC50 is above 1280 nM.

Take “CHSA0011 (chondrosarcoma, adherent, top dose 1.28 µM)”: the AUC is 0.74 and the IC50 worked out at 524 nM.

As to “CHSA0108 (chondrosarcoma, adherent, top dose 1.28 µM)”, the AUC is 0.858 and the IC50 was above 1280 nM.

In the case of “CHSA8926 (chondrosarcoma, adherent, top dose 1.28 µM)”, the AUC came to 0.857 and the IC50 is above 1280 nM.

As for “CL-11 (large intestine, adherent, top dose 1.28 µM)”, the AUC came out at 0.987 and the IC50 was above 1280 nM.

As to “CMK (acute myeloid leukaemia, suspension, top dose 1.28 µM)”, the AUC is 0.776 and the IC50 came to 433 nM.

With “COLO-205 (large intestine, suspension, top dose 1.28 µM)”, the AUC is 0.644 and the IC50 was 199 nM.

Regarding “COLO-320-HSR (large intestine, suspension, top dose 1.28 µM)”, the AUC turned out to be 0.991 and the IC50 was above 1280 nM.

As for “COLO-668 (small cell lung carcinoma, adherent, top dose 1.28 µM)”, the AUC was determined as 0.953 and the IC50 was above 1280 nM.

Consider “COLO-678 (large intestine, semi-adherent, top dose 1.28 µM)”, for which the AUC came to 0.946 and the IC50 is above 1280 nM.

For the cell line “COLO-679 (melanoma, adherent, top dose 1.28 µM)”, the AUC worked out at 0.859 and the IC50 is 1270 nM.

Turning to “COLO-680N (oesophagus, adherent, top dose 1.28 µM)”, the AUC was found to be 0.875 and the IC50 is above 1280 nM.

Take “COLO-684 (endometrium, suspension, top dose 1.28 µM)”: the AUC was determined as 0.613 and the IC50 was 170 nM.

The values above are taken from the supplement of paper PMC4967469.
